# Measured values reported in PubChem BioAssay AID485344 (National Center for Advancing Translational Sciences (NCATS), 2010).
# Among all 340,000 compounds or so, about 6,900 (2%) were called active. Cut-off read from the data, not from the text of the source: active = inhibition above about 30%; inactive = below that, where a call was filed. This is a selection; strong and weak results do not stand in their true shares. Entries without a call were filed so in the source.
# Target: D(2) dopamine receptor (Homo sapiens) (UniProt P14416)
# Sequence of UniProt P14416 (P14416 whole entry, looked up): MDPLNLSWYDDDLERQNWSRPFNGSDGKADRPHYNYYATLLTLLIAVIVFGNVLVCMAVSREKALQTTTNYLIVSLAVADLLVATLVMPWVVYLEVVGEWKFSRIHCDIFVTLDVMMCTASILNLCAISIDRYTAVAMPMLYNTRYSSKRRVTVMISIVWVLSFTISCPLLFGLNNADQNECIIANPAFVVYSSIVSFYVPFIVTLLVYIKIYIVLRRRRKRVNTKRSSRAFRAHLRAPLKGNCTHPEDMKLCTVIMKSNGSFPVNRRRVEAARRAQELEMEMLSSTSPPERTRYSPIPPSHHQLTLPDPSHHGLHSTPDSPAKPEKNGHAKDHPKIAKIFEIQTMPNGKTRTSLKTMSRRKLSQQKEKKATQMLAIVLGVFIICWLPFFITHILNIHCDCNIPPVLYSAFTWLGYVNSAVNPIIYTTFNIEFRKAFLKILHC
# Assay: HTS Assay for Allosteric Antagonists of the Human D2 Dopamine Receptor: Primary Screen for Antagonists; note: 0% is about no effect
# Details: HEK293 TREx D2 cells, calcium flux, dopamine EC80; at 10 µM; stronger effect = higher value
# Method in brief: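 Tetracycline-induced HEK293 TREx cells expressing D2 receptor forced-coupled to calcium signalling, loaded with no-wash calcium dye. Compounds added and calcium flux read 180 s, then dopamine added at EC80 and read a further 180 s.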
row,Compound,inhibition
1,Cc1nn2c(=O)cc(COc3ccc(/C=C(\C#N)C(=O)Nc4ccc(F)cc4)cc3)nc2s1,20.9%
2,Cc1nn(C)c2c1c(-c1ccccc1)cc(=O)n2CC(=O)Nc1ccccc1C(F)(F)F,-3.76%
3,CCOC(=O)COc1ccccc1C1C(C(=O)OC)=C(C)NC2=C1C(=O)c1ccccc12 (stereo not given),-12.6%
4,COc1cc(NC(=O)CSc2nc3ccccc3nc2Cc2ccc(Cl)cc2)cc(OC)c1,-13.4%
5,COCCCNC(=O)CSc1nc2c(sc3ccccc32)c(=O)n1CCc1ccccc1,-15.9%
6,Cc1nc2c(c(C)c1CCC(=O)NCc1ccccc1)c(=O)n(C)c(=O)n2C,-1.93%
7,CCOC(=O)c1cccc(NC(=O)c2cc3c(-c4cccc(OC)c4)nn(C)c3s2)c1,18.6%
8,CC(C)(C)c1ccc(OCC(=O)Nc2ccc(S(=O)(=O)Nc3ncccn3)cc2)cc1,-23.9%
9,Cc1ccc(S(=O)(=O)c2nc(S(C)(=O)=O)sc2N(C)Cc2ccccc2)cc1,-3.47%
10,Cc1cccc(NC(=O)C2CCC(CNS(=O)(=O)c3csc(C(N)=O)c3)CC2)c1C (stereo not given),3.96%
11,COc1ccc2nc(NC(=O)c3nc(SC(C)C)ncc3Cl)sc2c1,-2.8%
12,O=C(NC1CCCC1)c1cc(Nc2cccc(C(F)(F)F)c2)nc2ccccc12,-7.64%
13,CCC(=O)N1CCc2cc(Br)cc(S(=O)(=O)CCC(=O)N3CCN(c4ccccc4F)CC3)c21,-9.68%
14,O=C(C1CCN(S(=O)(=O)Cc2ccccc2)CC1)N1CCN(c2ccccc2)CC1,15.1%
15,CCOC(=O)c1cccc(NS(=O)(=O)c2ccc(-c3cnc(C4CC4)o3)cc2)c1,5.35%
16,NC(=O)c1nc(Nc2ccccc2)sc1NC(=O)c1ccccc1Br,7.02%
17,S=C(NC1CCCCC1)NC1CC2CCC(C1)N2Cc1ccccc1 (stereo not given),active: 76.9%
18,COc1ccc2c(c1)Sc1ccccc1N2CCN(C)C,active: 40%
19,Cc1ccc(OCC(=O)Nc2ccc3nc(SCC(=O)N4CCOCC4)sc3c2)cc1,-2.83%
20,CC(=O)c1c(C)[nH]c(C(=O)N(C)CC(=O)Nc2ccc(Cl)c(C(F)(F)F)c2)c1C,active: 39.3%

row,Compound,inhibition
1,COc1ccccc1NC(=O)CSc1ncc2c(n1)-c1cc(Cl)ccc1N(Cc1ccccc1)S2(=O)=O,-5.65%
2,CCCCNC(=O)CCCn1c(=O)c2ccccc2n(Cc2cccc(Cl)c2)c1=O,0.525%
3,Cn1c(CN2CCCCC2)nc2cc(NC(=O)c3ccccc3Cl)ccc21,-2.94%
4,COc1ccc(OC)c(CNC(=O)C2CCN(c3nc4ccccc4nc3C(F)(F)F)CC2)c1,1.25%
5,Cc1ccc(C)n1-c1nnc(N2CCCC(C(=O)NCc3cccc(F)c3)C2)s1 (stereo not given),-4.98%
6,Cc1ccc2[nH]c3c(=O)n(CC(=O)N4CCCCC4)ncc3c2c1,-3.58%
7,Clc1ccc(C(c2ccccc2)c2c[nH]c3ccccc23)s1 (stereo not given),-2.27%
8,Nc1cc(=O)[nH]c(SCC(=O)Nc2cc(Cl)cc(Cl)c2)n1,active: 30.1%
9,COc1cc(OC)cc(-c2cc3nc(C)c(CCC(=O)NCc4ccc(Cl)cc4)c(C)n3n2)c1,-2.03%
10,Cc1cc2oc(=O)cc(C)c2c2occ(-c3ccc(Cl)cc3)c12,-0.542%
11,COc1ccc(C(=O)Nc2ccc(-n3nncc3-c3ccccc3)cc2)cc1OC,-23.1%
12,Cc1cccc(N2CCN(C(=O)Cn3ncc4c5ccccc5n(C)c4c3=O)CC2)c1C,4.92%
13,CCOC(=O)N1CCN(S(=O)(=O)c2c(C)cc(C)cc2C)CC1,active: 54%
14,CCOC(=O)c1cc(OC(=O)c2ccccc2C)n(-c2ccccc2)n1,5.49%
15,CCCCn1nnc(NC(=O)c2ccc(-c3ccccc3[N+](=O)[O-])o2)n1,active: 51.7%
16,COc1cccc(N2CCN(C(=O)CCS(=O)(=O)c3ccc4c(c3)oc(=O)n4C)CC2)c1,1.39%
17,COCCCNC(=O)C1CCN(c2nc3ccc(C)cc3[nH]2)CC1,-5.53%
18,Cc1ccc(S(=O)(=O)N2CCC(C(=O)Nc3ccc(C)c(Cl)c3)CC2)cc1,1.58%
19,O=C1c2[nH]nc(-c3ccccc3O)c2C(c2cccc(OCc3ccccc3)c2)N1CCO (stereo not given),-10.6%
20,CN(CCNC(=O)CCCOc1cc(=O)n(C)c2ccccc12)Cc1ccccc1,active: 47.3%

row,Compound,inhibition
1,COc1ccc(CCNC(=O)C(=O)NCC(c2cccs2)S(=O)(=O)c2ccc(C)cc2)cc1 (stereo not given),-27.3%
2,CCN(CC)C(=O)Cn1c(=O)n(-c2ccc(Cl)cc2)c(=O)c2c3c(sc21)CCC3,18.5%
3,CCOC(=O)c1c(C)[nH]c(C)c1S(=O)(=O)N1CCN(c2cccc(C(F)(F)F)c2)CC1,0.459%
4,COc1ccc(C(=O)COC(=O)C(Cc2c[nH]c3ccccc23)NC(=O)c2ccc(C(C)(C)C)cc2)cc1 (stereo not given),-2.35%
5,Cc1ccc(CCNC(=O)c2ccc3c(c2)N(Cc2cccc(Cl)c2)C(=O)c2ccccc2S3(=O)=O)cc1,13.8%
6,Cc1cc(C)cc(OC(C)C(=O)Nc2c(C(=O)c3ccccc3)oc3ccccc23)c1 (stereo not given),0.212%
7,O=C(Nc1cccc(C(F)(F)F)c1)C1CCCN1S(=O)(=O)c1cccc2nsnc12 (stereo not given),10.6%
8,c1ccc(CSc2nc3ncccc3[nH]2)cc1,10.9%
9,CCCN(CCC)S(=O)(=O)c1ccc(C(=O)Nc2sc3c(c2C(=O)OC)CCN(CC)C3)cc1,-7.51%
10,Cc1ccc(CO/N=C\Cc2snc(Sc3ncc(C(F)(F)F)cc3Cl)c2C#N)cc1,active: 33.5%
11,CSc1ccc(C2c3c(oc4cc(C)cc(C)c4c3=O)C(=O)N2Cc2ccco2)cc1 (stereo not given),14.7%
12,COc1ccc(OC)c(NS(=O)(=O)c2ccc(-c3cc(C)no3)s2)c1,1.22%
13,Cc1cccc(C(=O)Nc2nnc(S(=O)(=O)N(C)c3ccccc3C)s2)c1,-1.46%
14,Cc1ccc(-n2c(-c3ccco3)nc3c(cnn3-c3ccccc3Cl)c2=O)cc1,18.1%
15,CC(C)c1cnc2c(c1SCC(=O)Nc1cccc(F)c1)c(=O)n(C)c(=O)n2C,-1.84%
16,Cc1ccc(Cl)cc1Nc1nn2c(=O)c3ccc(C(=O)N4CCCC(C)C4)cc3nc2s1 (stereo not given),2.51%
17,CCn1cc2nc(SCc3cccc(Cl)c3)n(Cc3ccc(C)cc3)c(=O)c2n1,-22.4%
18,O=C(Nc1cccc(F)c1)C1CCN(S(=O)(=O)c2cccc3nsnc23)CC1,-2.49%
19,COc1ccc(CCNS(=O)(=O)c2cc(-c3cc(C)no3)ccc2C)cc1OC,-3.11%
20,CN(C)c1ccc(CNC(=O)CCn2cccn2)cc1,17.8%
